Reference: PMC5388433
Where a chain is given by its changes, count along the chain named. No constants are given. Whether binding was seen depends on the method and setting. Some entries that bind do so weakly or less than the wild type.

The chains behind the UniProt entries cited, without tags or fusion partners.
UniProt P45973: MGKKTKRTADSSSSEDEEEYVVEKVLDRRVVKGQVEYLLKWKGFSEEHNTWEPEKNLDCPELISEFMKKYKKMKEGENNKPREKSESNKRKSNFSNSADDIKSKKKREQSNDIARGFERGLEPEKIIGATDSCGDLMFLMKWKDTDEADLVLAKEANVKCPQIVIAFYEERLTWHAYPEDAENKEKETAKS

What was measured:
[1] = biological target: T1, KDM2A_(543-811) V801A/L803A (human) (UniProt Q9Y2K7); experiment: SEC; 50 μg of each protein mixed in 50 μl, 15 min at 4°C; Superdex 200 Increase 3.2/300; 50 mM Tris pH7.5, 100 mM NaCl, 5 mM β-mercaptoethanol; fractions on Coomassie-stained gels; both purified
T1 sequence: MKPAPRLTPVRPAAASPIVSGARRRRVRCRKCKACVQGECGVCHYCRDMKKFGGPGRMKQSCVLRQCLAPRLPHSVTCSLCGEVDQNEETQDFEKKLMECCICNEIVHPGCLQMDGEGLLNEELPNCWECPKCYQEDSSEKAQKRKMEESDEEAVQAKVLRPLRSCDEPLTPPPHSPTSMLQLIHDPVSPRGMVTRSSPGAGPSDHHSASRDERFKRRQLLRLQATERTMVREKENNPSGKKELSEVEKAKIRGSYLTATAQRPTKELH

[2] = biological target: T2, KDM2A_(543-811) nucleosome recognition module (human) (UniProt Q9Y2K7); experiment: as above
T2 sequence: T1 sequence with A259V, A261L

binding [2]: binds
Substance: recombinant purified HP1α (WT) (from UniProt P45973 1-191)
binding [1]: no binding (tested: 50 μg of each protein in 50 μl)
